According to PubChem BioAssay AID624417 (National Center for Advancing Translational Sciences (NCATS), 2012):
About 6,400 (1.6%) of roughly 410,000 compounds were called active. The shares of active, inactive and inconclusive entries below differ from those in the screen. The call rests on the fitted dose curve; in most records, active means well fitted inhibition curve with a large enough effect; inconclusive means small, poorly fitted or top-dose-only effect; inactive means no such curve, though single readings can be large or run the other way. Potencies beside an inconclusive call are fits to weak or partial responses and may not hold up.

The compounds below were run against Glucagon-like peptide 1 receptor (Homo sapiens) (UniProt P43220) (assay: qHTS of GLP-1 Receptor Inverse Agonists (Inhibition Mode)). Settings: HEK293 GLP-1R CRE-luciferase, luminescence, 24 h, GLP-1R form is constitutively active; series mostly up to 38.3 µM.
Sequence of UniProt P43220 (P43220 whole entry, looked up): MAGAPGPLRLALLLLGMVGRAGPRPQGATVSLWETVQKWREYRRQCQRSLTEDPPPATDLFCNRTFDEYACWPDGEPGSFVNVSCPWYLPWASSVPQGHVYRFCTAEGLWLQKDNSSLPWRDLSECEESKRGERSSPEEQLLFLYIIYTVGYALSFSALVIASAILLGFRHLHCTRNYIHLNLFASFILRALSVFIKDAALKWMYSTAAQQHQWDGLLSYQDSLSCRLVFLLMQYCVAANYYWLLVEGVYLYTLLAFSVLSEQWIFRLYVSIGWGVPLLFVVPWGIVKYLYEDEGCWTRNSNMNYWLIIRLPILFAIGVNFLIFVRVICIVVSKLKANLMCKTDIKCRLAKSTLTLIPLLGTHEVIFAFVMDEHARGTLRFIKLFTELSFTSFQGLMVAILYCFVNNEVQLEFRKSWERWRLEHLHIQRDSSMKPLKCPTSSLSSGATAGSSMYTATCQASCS
Method in brief: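 Readout was luciferase luminescence, measured 12 min after detection reagent at room temperature. Beforehand, GLP-1R reporter HEK293 cells had sat 12 h, then received compounds for 24 hr at 37 deg C.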
Further: nearly all actives have a fitted effect of over 55% in size.
Potency means the concentration at half of the fitted maximal effect; tags describe the fitted curve by direction and shape.

Potency, active:
COc1ccc(-c2nsc3c(N4CCCCC4C)ncnc23)cc1 (configuration not stated) 0.282 µM

Potency, inactive:
CCOCC(=O)Nc1ccccc1C(=O)OCC
OCC(O)CN1CCN(c2ccccc2)CC1 (configuration not stated)
COc1ccc(OC)c(C=Nc2ccccc2-c2nc3ccccc3[nH]2)c1
COc1ccc(CNCc2ccc(C(=O)O)s2)cc1
CCOc1cc(C(=O)N/N=C/c2ccoc2)cc(OCC)c1OCC
O=c1nc2ccccc2c2n1CC(CN1CCN(Cc3ccccc3)CC1)N2 (configuration not stated)
O=C(NCc1ccccc1)NC1COc2ccccc2C1 (configuration not stated)
Cc1cccc(OC(=O)c2snnc2C)c1
CCCCCCCC[n+]1cccc(C(=O)N(CC)CC)c1
CCN(C(=O)Cn1c(=O)oc2cc(S(=O)(=O)N3CCCCCC3)ccc21)c1cccc(C)c1
Clc1ccc(CSc2nnc(CNc3cccc(Cl)c3)o2)cc1
CC(C)(C)C1CCC(OCC(O)CN2CCCC2)CC1 (configuration not stated)
Cc1ccc(NC(=O)CSc2nnnn2C)cc1S(=O)(=O)N(C)C
Cc1ccc(OCC(=O)NCC(=O)OCc2cc(=O)n3nc(C(C)C)sc3n2)cc1
COC(=O)Cc1ccc(NC(=O)c2ccccc2Cl)cc1
Cc1csc(=O)n1CCC(=O)OCC(=O)c1c(N)n(CC(C)C)c(=O)n(C)c1=O
CCN(CC)S(=O)(=O)c1ccc2c(c1)N(CC(=O)Nc1c(C)cccc1C)C(=O)C1CCCN21 (configuration not stated)

Potency, inconclusive:
CC(C)Oc1ccc(C(=O)NCC(c2ccc(N(C)C)cc2)N2CCCC2)cc1 (configuration not stated) 17.8 µM [inhibitor, single point]
CCc1ccc(CN2CCN(C(=O)c3ccco3)CC2)cc1 11.2 µM [inhibitor, partial curve, poor fit]
C=C1CCC[C@]2(C)C[C@H]3OC(=O)C(CN[C@@H](C)c4ccccc4)[C@H]3CC12 (some centres not stated) 3.16 µM [inhibitor, partial curve, poor fit]
Cc1ccccc1C(=O)Nc1ccc(N2CCCCCC2)cc1 10 µM [inhibitor, partial curve, poor fit]
Cc1cc(OCc2cc(C(=O)N(C)C(C)c3ccccn3)no2)cc(C)c1Cl (configuration not stated) 12.6 µM [inhibitor, partial curve, poor fit]
CC1=C(c2ccc(C)cc2)S(=O)(=O)NC1=NCc1ccccc1Cl 11.2 µM [inhibitor, single point]
Cc1cccc(N2CCN(CC(=O)NCc3ccccc3)CC2)c1C 10 µM [inhibitor, partial curve, poor fit]
CCC(=O)Nc1ccc(N2CCCCC2)c(C(=O)Nc2ccc(OC)cc2)c1 11.2 µM [inhibitor, partial curve, poor fit]
Cc1ccc(-n2ncc3c(NCCc4ccc(S(N)(=O)=O)cc4)ncnc32)cc1 10 µM [inhibitor, single point]
COc1ccc(C)cc1NC(=O)CCNS(=O)(=O)c1cccc(C(F)(F)F)c1 28.2 µM [inhibitor, single point]
CCOc1ccc(N(CC(=O)NC(C)(C)C)S(=O)(=O)c2c(C)noc2C)cc1 10 µM [inhibitor, single point]
C=CCNC(=S)N/N=C(\C)c1ccc(OC)cc1 7.08 µM [inhibitor, partial curve, poor fit]
C/C(CC(=O)Nc1cccc(Cl)c1C)=N\NC(=O)Cc1csc(N)n1 28.2 µM [inhibitor, single point]
O=C(Nc1nc2ccccc2n1CCOc1ccccc1)c1ccco1 28.2 µM [inhibitor, single point]
CCCCC(=O)N/C(N)=N/c1nc2ccccc2o1 28.2 µM [inhibitor, single point]
CCN(CC)CCCN=Cc1c(O)n(-c2ccccc2C)c(=O)c2ccccc12 28.2 µM [inhibitor, single point]
CCOc1ccccc1NC(=O)CSc1ncc2c(n1)-c1ccccc1N(CC)S2(=O)=O 11.2 µM [inhibitor, single point]
C/C(=N\NC(=O)Cc1ccc(Cl)cc1)c1ccccn1 3.16 µM [inhibitor, partial curve, poor fit]
CCCC(=O)C1=C(O)C(C(=O)OC)C(C)(C)CC1=NCCc1ccccc1 (configuration not stated) 11.2 µM [inhibitor, partial curve, poor fit]
COc1ccc(-c2csc(NC(=O)C3CC(=O)N(c4ccc5c(c4)OCCO5)C3)n2)cc1 (configuration not stated) 12.6 µM [inhibitor, single point]
COc1ccc(S(=O)(=O)N2CCc3ccccc32)cc1C(=O)N1CCC(C)CC1 8.91 µM [inhibitor, partial curve, poor fit]
O=C(CC(c1ccccc1)c1ccccc1O)N1CCCCC1 (configuration not stated) 12.6 µM [inhibitor, single point]
NC(=O)C1CCN(Cc2ccc(OCc3ccccc3)cc2)CC1 6.31 µM [inhibitor, single point]
COc1ccc(Nc2ncccc2C(=O)NCc2ccccc2)cc1 10 µM [inhibitor, single point]
Cc1ccc(NC(=O)CSCC(=O)N(C)Cc2c(F)cccc2Cl)cc1 22.4 µM [inhibitor, single point]
CCN(CC)C(=O)Oc1cc(COC)nc(-c2ccccc2)n1 12.6 µM [inhibitor, single point]
CCN(CC(=O)NCc1cccs1)C(=O)c1cccc(S(=O)(=O)N2CCc3ccccc32)c1 22.4 µM [inhibitor, single point]
COc1ccc(-c2nc(CSCC(=O)N3CCN(c4ccccc4F)CC3)c(C)o2)cc1 11.2 µM [inhibitor, partial curve]
O=C(CN1C(=O)NC(Cc2c[nH]c3ccccc23)C1=O)NCCc1ccccc1 (configuration not stated) 8.91 µM [inhibitor, single point]
Cc1cccc(NC(=S)NC(C)CCc2ccccc2)c1 (configuration not stated) 12.6 µM [inhibitor, partial curve, poor fit]
CC(=O)NC(c1cccc(F)c1)c1nc(-c2ccc3ccccc3c2)cs1 (configuration not stated) 28.2 µM [inhibitor, single point]
O=c1c2ccccc2sc2nc(CCl)nn12 28.2 µM [inhibitor, single point]
C[C@H](O)[C@@H]1CN2CCc3c([nH]c4ccccc34)[C@@H]2C[C@@H]1N(C)C(=O)c1ccco1 10 µM [inhibitor, single point]
COc1cccc(-c2nc(-c3ccccn3)no2)c1 7.94 µM [inhibitor, partial curve, poor fit]
O=C(CCS(=O)(=O)c1ccc(Br)s1)Nc1cc(C(F)(F)F)cc(C(F)(F)F)c1 11.2 µM [inhibitor, partial curve, poor fit]
CC(C)[C@H](NC(=O)c1ccc(C(C)(C)C)cc1)C(=O)Nc1nnc(C2CC2)s1 3.55 µM [inhibitor, single point]
NS(=O)(=O)c1cccc(NC(=O)Cc2ccc(Cl)c(Cl)c2)c1 10 µM [inhibitor, partial curve, poor fit]
CN(C)S(=O)(=O)c1cccc(NC(=O)CSc2cccc3cccnc23)c1 3.55 µM [inhibitor, partial curve, poor fit]
O=C(c1cc2sccc2n1Cc1ccc(F)cc1)N1CCCc2ccccc21 8.91 µM [inhibitor, partial curve, poor fit]
O=C(Nc1nc2ccc(F)cc2s1)c1ccccn1 2 µM [inhibitor, full curve, poor fit]
CCN(c1ccccc1)S(=O)(=O)c1ccc(N2CCN(c3ccccc3O)CC2)nc1 31.6 µM [inhibitor, single point]
CC(C)Oc1ccc(C(=O)N(Cc2ccc(N(C)C)cc2)Cc2ccco2)cc1 12.6 µM [inhibitor, single point]
CC(C)c1ccccc1NC(=O)Nc1ccc2c(c1)OCO2 12.6 µM [inhibitor, partial curve, poor fit]
CCN(CC(=O)NCc1cccs1)C(=O)c1cccc(S(=O)(=O)N(CC)c2ccccc2)c1 10 µM [inhibitor, partial curve, poor fit]
Cc1c(C)n(Cc2ccccc2)c2ccc(C(=O)N3CCN(c4ccccc4)CC3)cc12 31.6 µM [inhibitor, partial curve, poor fit]
NC(CSC(c1ccccc1)(c1ccccc1)c1ccccc1)C(=O)O (configuration not stated) 4.47 µM [inhibitor, partial curve]
O=C(c1cc(COc2ccc(F)cc2Cl)on1)N1CCN(C2CCCC2)CC1 12.6 µM [inhibitor, partial curve, poor fit]
O=C(Nc1cccc(F)c1)C1CC(=O)N(c2ccc(Cl)cc2)C1 (configuration not stated) 22.4 µM [inhibitor, single point]
Cc1ccc(S(=O)(=O)Nc2cc(Cl)c3oc4c(c3c2)CCCC4)cc1 10 µM [inhibitor, partial curve]
